This is one part of the list.

This experiment concerns PfAP2-HC AP2 domain (GST-tagged). As to the kind of experiment: gcPBM binding intensity (ln(normalized median fluorescence intensity)); higher = stronger DNA binding. An outline of the steps:
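Binding intensity values are the highest Masliner-normalised natural-log median intensity among replicate spots of either probe orientation. The binding step lasted 1 h in 1× PBS with 1% milk, 0.2 mg/ml BSA, 0.5% salmon testes DNA and 0.03% Triton X-100, using GST-tagged P. falciparum DNA-binding domains expressed in E. coli on an Agilent 4 × 180k array of primer-extended double-stranded 36-bp intergenic genomic probes plus negative controls. Alexa488 anti-GST antibody and a 488 nm scan detected bound protein.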
Turning to “TAATATATATTATTATGTACATATATTGATTCCTTG [XGTACX_site6830]”, the “gcPBM binding intensity (ln)” value is 9.68.
In the case of “TATTTATTAATATGTACACACATCAACCATATTAAC [CACACA_site7001]”, the “gcPBM binding intensity (ln)” value stood at 9.9.
“AAAAGGTGGAAAAATGCATGCAGGCTATTCTATATA [TGCATGCA_site1034]”: the “gcPBM binding intensity (ln)” value was determined as 9.68.
For “TTCCACCAATATATATGTACTTATAATATATATATA [XGTACX_site8700]”, the “gcPBM binding intensity (ln)” value was 9.59.
To “AATTACATATAATACTGTACGCTAATAAGAAAAAAA [XGTACX_site7413]” belongs 9.67; to “AAAAAACACGGACACACACACATATACATACATACA [CACACA_site5470]”, 10.6.
To “AATATAAATAATGTTAAACACACATACCGATATATA [CACACA_site8869]” belongs 9.87.
“ATTTATAGAGCTATATGTACATATATATATATTATT [XGTACX_site3704]”: the “gcPBM binding intensity (ln)” value was found to be 10.
For “AACGCTTATTAGTTGTTGTATATGTGTTCACATATT [CACACA_negctrl_site379]”, the “gcPBM binding intensity (ln)” value is 9.7.
To “ATATAAATAAAGAAATATATATATATATATATATAT [GTGCAC_negctrl_site668]” belongs 9.43; to “ATATATATGTATATAACATGCAACATTTAATAATAA [TGCATGCA_site1018]”, 9.85; to “ATAAAAGATTTATACATACACACATATTATATTCAC [CACACA_site3714]”, 10.3.
To “TTTTTTTTTTTTTTTTAACACACATATATATATTTT [CACACA_site8585]” belongs 9.61; to “GATCTATTGAGTGATACATGCAGGAAAATTAAAAAC [TGCATGCA_site729]”, 9.59; to “TTTTTTTTTTTATGCTCACACATTAATTTTTATACA [CACACA_site4527]”, 9.68.
With “TATGTATGTATGTATGTATGCATGTCTAACACCTAA [TGCATGCA_site360]”, the “gcPBM binding intensity (ln)” value amounted to 9.65.
To “AAAAAGAAAAAAGAAAGTACAAATATACACATTTTT [XGTACX_site3343]” belongs 9.53; to “TTTTTATTATAAGGTCGTACAATTGTAATTATTGTA [XGTACX_site1413]”, 9.55; to “ACACATGTATTTGGTGCATGTTGTTAAAAAAATATT [TGCATGCA_site795]”, 9.7.
For “TCATAGCTAGGATAACGTACAGAAAAGTGAAAAATT [XGTACX_site3322]”, the “gcPBM binding intensity (ln)” value amounted to 9.84.
To “TTTTTTTTTTGTTGTTGTACTCTTATATTTTTATAT [XGTACX_site6178]” belongs 9.78; to “ATTCTAGTAATATATGTATATTTATATATGTATGTG [XGTACX_negctrl_site419]”, 9.64.
To “ATATATACCTATAACACACACATATTTATATTTATA [CACACA_site7257]” belongs 10.1; to “TAATAAAAAAAGTGCACACACATAATATATATATAT [CACACA_site3340]”, 10.4.
To “TATAAATCAATATGTACACACATATACATGTTGAAT [CACACA_site7460]” belongs 9.85.
Turning to “CATATAATATATCAATGTACATATATATTTTATAAA [XGTACX_site5901]”, the “gcPBM binding intensity (ln)” value stood at 9.53.
Turning to “TTAGCAACTATTACTACACACATTTTTATATAATTT [CACACA_site1372]”, the “gcPBM binding intensity (ln)” value is 9.95.
To “ATTGTCAAAACACGCACACACATATACATAATAACA [CACACA_site1742]” belongs 11.1; to “ATTATATACATATATATTGTATATACTATACATATG [XGTACX_negctrl_site545]”, 9.7.
To “TCCTTGTTTGGTTTTTTTTTTTCTTCTTTTTTTTTT [CACACA_negctrl_site1355]” belongs 9.68.
To “ACACATACACATTAGGTGCACATAATTCAATATTAC [GTGCAC_site9862]” belongs 9.9.
In the case of “TATGAAACGATATATGTGCACATGAGGGAATATAGA [GTGCAC_site9611]”, the “gcPBM binding intensity (ln)” value came to 9.97.
To “TTAAATGTTATATATTGTACATATAATATATGTATT [XGTACX_site1492]” belongs 9.66; to “TCTTATTTAAAAATAGCACACATTATATATATATAT [CACACA_site8916]”, 9.79.
To “ATATATATATAAAGGAGTACATACATTAAAAAAAAA [XGTACX_site1095]” belongs 9.79.
To “AAAAAACATACATACACACACATAAATATATATATT [CACACA_site2699]” belongs 10.4; to “TTTTGAGAATATATGGGTACAAATAAATAAAAATAT [XGTACX_site1933]”, 9.63; to “TTTTCTATTTAATTGGTGCACTGATATATACACATA [GTGCAC_site9533]”, 9.71.
Turning to “TTATGTTATATATACACACACAAAAGAAAAAAAAAA [CACACA_site2987]”, the “gcPBM binding intensity (ln)” value came out at 10.4.
To “AGGTTAAAAATAAATACACACATTTGATGTCTGTAT [CACACA_site6596]” belongs 9.82; to “ATATAACATATTAATAATATATTTATAATATGTTTA [GTGCAC_negctrl_site168]”, 9.39; to “TCTTATAACAAAAAAAAATAAAAAATAAAACTATAT [GTGCAC_negctrl_site11]”, 9.43.
To “CATATAAATAGACACACACACACATATAAATAAATA [CACACA_site7156]” belongs 11.1; to “AAATTTAAATAATGTGCGCATCTTAATATATATAAG [GTGCAC_site9890]”, 9.7; to AAATAATATTGAAAAGTGCATATTTTTGTTGATATA, 9.58.
To “TTTTAAAAAAAAAAAATAAATAAATAAGATATTATC [CACACA_negctrl_site1791]” belongs 9.36; to “TTTTAAAACTACATTGGTACACAATAAAAAAAAAAA [XGTACX_site2793]”, 9.49; to “AAAAAAAAAAAAAAAGCACACATATAAATATGAATA [CACACA_site8391]”, 9.65.
As for “TCATATATATTATACACACACATATATAAATATATA [CACACA_site967]”, the “gcPBM binding intensity (ln)” value worked out at 9.89.
As for “AGGTTGAATATATATTTGTGATTATATTATTTTATT [CACACA_negctrl_site778]”, the “gcPBM binding intensity (ln)” value was 9.74.
To “TATATATATATATAATGTACAAACTCCTTTATATAT [XGTACX_site4545]” belongs 9.61.
To “CCATGTCAAACATTTGCACACAAAAAAATAAAAATT [CACACA_site4546]” belongs 9.84; to “TCATTCAAAAAAAATCAACACACAGTTACATAGCTC [CACACA_site8700]”, 9.79; to “GTTTTTTTTATATATTGTACAAATAATATATTATAT [XGTACX_site29]”, 9.8.
To “TTATTTAAACAAATCACACACAAATATAAATACATA [CACACA_site5158]” belongs 10.3; to “AACACCAAACTAAATGTACACACATACATAAATATA [CACACA_site8298]”, 10.1; to “AATATAAACACAAACACACACATATATATATATATA [CACACA_site4307]”, 10.1.
Turning to “TAAAATTATGTAATAACACACATATACAATACATAT [CACACA_site1236]”, the “gcPBM binding intensity (ln)” value was determined as 9.94.
To “GAAAATTCATAAAAATGTACTTATTATATTATTTAT [XGTACX_site2169]” belongs 9.54; to AAAGGTTTGCGTTGTGTGCACAAAATAAATATATAA, 10.1; to “TTATGAATATTGATGTATAAAAAAATATATATGTTA [XGTACX_negctrl_site390]”, 9.47.
To “GATATATAACTTTTAACACACAAAAAAAAAAAAAAT [CACACA_site7653]” belongs 9.86.
On to “TTTTCAAAAATATACACACACATAAATATATGTATA [CACACA_site777]”, for which the “gcPBM binding intensity (ln)” value was found to be 9.8.
To “AAAAAAATTTTAAAATGTACAAATTTTAATATATAT [XGTACX_site7628]” belongs 9.36; to “TTTTTTATTTAAAGTAGTACTTTTTAGAAAACAAAA [XGTACX_site6759]”, 9.05.
To “ATTCTAAATATGTATATACACACTTTTAATATTCAT [CACACA_site4118]” belongs 9.89.
To “TTTATGAAACAGTGCACACATAAAAATAAATACATA [CACACA_site5631]” belongs 9.88.
With “TTATTTTAAATTAACACATGCATAATATATGTATAT [TGCATGCA_site597]”, the “gcPBM binding intensity (ln)” value came out at 9.47.
To “CAATGTATTTAGAATACATGCATATTTTCATAATGT [TGCATGCA_site221]” belongs 9.58; to “AATTATGCACAAATCACACATATAAAATAAAAAGTG [CACACA_site4474]”, 9.79.
Regarding “AAATATTTATATGTTACACACTGTTTATAATTTTCT [CACACA_site4868]”, the “gcPBM binding intensity (ln)” value turned out to be 9.81.
In the case of “ATATAGTTTCACATGTGTACATAAAAATACACTTGT [XGTACX_site3339]”, the “gcPBM binding intensity (ln)” value stood at 9.69.
To “ACAAAAATGAGATGGTGTACGCACAAATAAATAATA [XGTACX_site5221]” belongs 10.
As for “TTTAATTTATATAATGATATTAAGTTGGTTATTAGG [CACACA_negctrl_site329]”, the “gcPBM binding intensity (ln)” value is 9.35.
To “AAATCCATATAGGATTGTACATATATTATATATATA [XGTACX_site8818]” belongs 9.59.
To “AATTCTTTACTATTCACACATATAAATATTCACTTT [CACACA_site4886]” belongs 9.83; to “CAAAATGTTAAAGATACACACCTAACAAACACAAAA [CACACA_site4685]”, 10.5.
To “ACATATATATTTATATGTACATATATTTATATATAT [XGTACX_site7469]” belongs 9.64; to “GTGGTATAAATTTTATGTACTTAATAACTCATTAAT [XGTACX_site5555]”, 9.7; to “AAAAATATTTAAAATACACACATATCTATAATATAT [CACACA_site7032]”, 9.83.
For the sequence “AAAAAAAAAAAACACACACACACAAATACATACACA [CACACA_site706]”, the “gcPBM binding intensity (ln)” value turned out to be 10.7.
To “TACTTACCTATAATAACACACAAGAAAAAAATAAAA [CACACA_site6616]” belongs 9.79; to “AAATAATATCATAAATGTACATATATCATATTATTA [XGTACX_site5372]”, 9.58.
To “TATAAAATTATGTGTACACAAATATAACTTTTCTTT [CACACA_site5554]” belongs 9.64; to “CATCCAAAAATATTATGTACTAAATTTGGATGTATT [XGTACX_site3954]”, 9.56; to “TATTCATATTCCAAGTGTACACATAAATCCCTAATA [XGTACX_site4131]”, 9.52.
To “AAAATATTTCTTCTTTGTACTTATATATATTTAATT [XGTACX_site5446]” belongs 9.67; to “TTAATAATTATAACATGTACATACACTAAATTTTTT [XGTACX_site8953]”, 9.67.
